# Data as given in publication PMC4336329 (PLoS ONE, 2015).
# Out of some 310,000 compounds screened, about 14,000 (4.5%) showed an effect of 50% or more. The effect is printed as a negative number. This is one part of the list.
# Target: human ether-à-go-go-related gene (hERG) potassium channel (human, UniProt Q12809)
# Assay: primary screen, population patch clamp on CHO cells stably expressing hERG
# 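Also: peak tail current of the secondary pulse compared with the same well before compound.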
# Chain of human ether-à-go-go-related gene (hERG) potassium channel (Q12809 whole entry, looked up): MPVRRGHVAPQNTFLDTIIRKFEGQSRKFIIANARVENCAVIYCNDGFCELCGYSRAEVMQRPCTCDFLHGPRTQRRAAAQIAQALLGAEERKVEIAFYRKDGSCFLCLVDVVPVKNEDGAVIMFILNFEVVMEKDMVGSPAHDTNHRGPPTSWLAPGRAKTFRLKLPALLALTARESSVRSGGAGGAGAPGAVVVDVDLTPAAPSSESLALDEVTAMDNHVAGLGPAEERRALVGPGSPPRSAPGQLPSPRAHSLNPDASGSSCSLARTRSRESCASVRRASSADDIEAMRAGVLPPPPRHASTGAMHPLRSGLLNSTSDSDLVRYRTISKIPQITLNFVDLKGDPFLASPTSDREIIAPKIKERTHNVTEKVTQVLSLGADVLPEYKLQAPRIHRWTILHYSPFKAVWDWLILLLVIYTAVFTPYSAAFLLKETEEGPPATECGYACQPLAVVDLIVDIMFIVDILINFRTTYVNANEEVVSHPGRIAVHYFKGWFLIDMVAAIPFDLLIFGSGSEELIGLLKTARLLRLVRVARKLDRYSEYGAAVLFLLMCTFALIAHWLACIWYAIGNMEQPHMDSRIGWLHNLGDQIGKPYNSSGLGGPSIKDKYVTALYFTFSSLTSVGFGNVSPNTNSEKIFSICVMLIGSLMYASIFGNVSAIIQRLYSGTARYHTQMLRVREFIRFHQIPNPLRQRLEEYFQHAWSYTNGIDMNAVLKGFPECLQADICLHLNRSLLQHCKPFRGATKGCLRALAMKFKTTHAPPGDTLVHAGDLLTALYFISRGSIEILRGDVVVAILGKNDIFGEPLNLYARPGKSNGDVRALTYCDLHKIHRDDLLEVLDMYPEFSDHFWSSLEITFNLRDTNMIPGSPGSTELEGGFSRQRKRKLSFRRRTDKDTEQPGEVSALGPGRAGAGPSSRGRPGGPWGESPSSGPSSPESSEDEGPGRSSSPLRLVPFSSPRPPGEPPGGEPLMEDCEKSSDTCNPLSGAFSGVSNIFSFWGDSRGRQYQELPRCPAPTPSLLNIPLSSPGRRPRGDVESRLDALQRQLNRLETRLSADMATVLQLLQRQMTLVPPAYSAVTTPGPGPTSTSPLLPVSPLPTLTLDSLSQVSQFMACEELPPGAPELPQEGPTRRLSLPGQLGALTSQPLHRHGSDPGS
row,Structure (SMILES),"hERG current change (%, negative = inhibition) at 10uM [%]"
1,O=C(NC1CCCCC1)C12CC3CC(C1)CC(n1cncn1)(C3)C2,0.934
2,O=C(NC1CCCCC1)c1cc(-c2ccccc2Cl)on1,26.8
3,CC12CCC(=O)N1C(C(=O)Nc1ccc(SC(F)F)cc1)CS2 (stereo not shown),-57.6
4,Cc1cccc(C)c1OCCCCn1cnc2ccccc2c1=O,-10.1
5,COc1ccc(S(=O)(=O)NC(CC(=O)NCc2ccco2)c2ccco2)cc1 (stereo not shown),0.0401
6,COCC(=O)Nc1cc(OC)ccc1OC,10.8
7,O=C(CSc1nnc(CNC(=O)c2ccco2)o1)Nc1ccccc1,17.2
8,O=C(O)CCC(=O)NNC(=O)c1cccc(Br)c1,-0.791
9,CCn1c(SCC(=O)Nc2cccc(OC)c2)nc2ccccc2c1=O,-47.1
10,CC(=O)c1c(C(C)=O)c(C)n(-c2cccc([N+](=O)[O-])c2)c1C,0.766
11,CSCCn1c(C(C)(C)C)cc(C(=O)O)c1C,12.7
12,O=C(OCc1nc2ccccc2s1)c1ccccc1O,15.5
13,CCC(C)NC(=O)c1ccc(NC(=O)CC2SC(N3CCCC3)=NC2=O)cc1 (stereo not shown),0.357
14,Cc1ccc(-c2onc3ccc(C4OCCO4)cc23)cc1,4.32
15,COC(=O)C(C)NC(=S)N1CCN(c2c(F)cc3c(=O)c(C(=O)O)cn(C4CC4)c3c2OC)CC1C (stereo not shown),-21.5
16,Cc1ccc2c(c1)N(C(=O)CCC(=O)N1CCC(C(N)=O)CC1)CCO2,-3.46
17,OCC(O)C1OC(Nc2ccc(Br)cc2)C(O)C1O (stereo not shown),16.7
18,Cc1cc(C)n(CCC(=O)N/N=C/c2ccc(O)cc2O)n1,0.732
19,Cc1cccc(NC(=O)c2cc3c(=O)n4ccccc4nc3n(CC(C)C)c2=N)c1,-78
20,N#Cc1c(N)n(CCOC(=O)c2cccc([N+](=O)[O-])c2)c2nc3ccccc3nc12,8.35
21,CC(OC(=O)c1oc2ccccc2c1COc1ccccc1)C(N)=O (stereo not shown),11.1
22,C/C=C\C(=O)Nc1cccc(C2=NOC3(C2)C[C@@H](C(N)=O)N(C(=O)c2ccc(Cl)cc2)C3)c1 (stereo partly shown),-1.39

row,Structure (SMILES),"hERG current change (%, negative = inhibition) at 10uM [%]"
1,COCCCn1c(SCC(=O)N2CC(=O)Nc3ccccc32)nnc1-c1ccoc1C,11
2,O=C(Nc1ccc(Cl)cc1F)c1ccc(COc2c(F)c(F)c(F)c(F)c2F)o1,1.24
3,CC(NC(=O)C1CCN(S(=O)(=O)c2ccc(Br)s2)CC1)c1ccccc1 (stereo not shown),-0.752
4,Cc1c(C)n(Cc2ccccc2)c2ncnc(N)c12,-3.84
5,C=CCOc1ccc(C2C(C(=O)c3cccs3)=C(O)C(=O)N2c2nnc(C)s2)cc1 (stereo not shown),18.8
6,O=C(/C=C/c1ccc([N+](=O)[O-])cc1)c1cccs1,-23.4
7,O=C(CSc1nnc(NC(=O)C2CC(=O)N(c3ccc(F)cc3)C2)s1)NC1CCCC1 (stereo not shown),13.9
8,COc1ccccc1N/N=C/c1ccc2c(c1)OCO2,-8.93
9,CC(C)C(NC(=O)C12CC3CC(CC(C3)C1)C2)C(=O)NC1=NCCS1 (stereo not shown),-1.17
10,CCC(CC)c1nnc(NC(=O)CN2C(=O)c3ccccc3C2=O)s1,21.7
11,C[C@H](NC(=O)c1nc[nH]c1C(=O)N[C@@H](Cc1ccccc1)C(=O)OC(C)(C)C)C(=O)OCc1ccccc1,8.61
12,O=C(CN1C2CCC1CC(NC(=O)C1CC1)C2)NCc1ccccc1 (stereo not shown),6.98
13,Cc1cc(C)cc(NC(=O)CSc2nc3nc(C)cc(C)n3n2)c1,-50.2
14,C=CCn1c(C(C)NC(=O)CCC)nc2ccccc21 (stereo not shown),-0.796
15,CC(C)c1nc2sc3ccccc3c(=O)c2c(=O)n1Cc1ccccc1,14.3
16,O=C(NCc1cccnc1)Nc1cccc(F)c1,7.53
17,CS(=O)(=O)Oc1ccccc1/C=C1/N=C(c2ccc(F)cc2)OC1=O,5.38
18,CCC(=O)Nc1ccc(-c2nc(-c3ccccc3)n(CC(=O)N3CCCCC3)n2)cc1,4.45
19,O=C(NNS(=O)(=O)c1ccc([N+](=O)[O-])cc1)C(=O)Nc1cccc(C(=O)O)c1,11.9
20,S=C(NCc1ccco1)Nc1ccc2c(c1)OCCO2,-16.3
21,O=c1cc(-c2ccccc2)nc(N2CCN(Cc3ccccc3)CC2)[nH]1,7.59
